Some of these densities may be calculated back from excess volumes.
Assay: xn = mol fraction of the nth substance listed
Conditions: 101 kPa

CO + CCCC[n+]1ccc(C)cc1.F[B-](F)(F)F
x1 = 1
Conditions	mass density [kg/m3]
313.15 K	772.3
323.15 K	762.7

CCCC[n+]1ccc(C)cc1.F[B-](F)(F)F + CO
Conditions	mass density [kg/m3]
298.15 K, x2 = 0.5746	1102.1
298.15 K, x2 = 0.7291	1050.3
298.15 K, x2 = 0.7878	1021.2
298.15 K, x2 = 0.8348	991.8
298.15 K, x2 = 0.8805	954.6
298.15 K, x2 = 0.9147	919.9
298.15 K, x2 = 0.9355	895.1
298.15 K, x2 = 0.9442	883.5
298.15 K, x2 = 0.9702	843.8
313.15 K, x2 = 0	1171.9
313.15 K, x2 = 0.6434	1071
313.15 K, x2 = 0.7843	1010.8
313.15 K, x2 = 0.8794	943
313.15 K, x2 = 0.9307	888.2
313.15 K, x2 = 0.9708	829.6
323.15 K, x1 = 0.0153	797.9
323.15 K, x2 = 0	1165.4
323.15 K, x2 = 0.4753	1106.7
323.15 K, x2 = 0.5754	1083.2
323.15 K, x2 = 0.6377	1066.1
323.15 K, x2 = 0.793	998.5
323.15 K, x2 = 0.8434	964.2
323.15 K, x2 = 0.8928	921.9
323.15 K, x2 = 0.9147	898.6
323.15 K, x2 = 0.9366	872.2
323.15 K, x2 = 0.9599	839.7

Source: a compilation of properties of binary mixtures
